The campaign covered roughly 310,000 compounds. About 2,200 (0.71%) showed an effect of 50% or more. Effects have a minus sign here. This is one part of the list.
Target: human ether-à-go-go-related gene (hERG) potassium channel (human, UniProt Q12809)
Assay: primary screen, population patch clamp on CHO cells stably expressing hERG

Chain of human ether-à-go-go-related gene (hERG) potassium channel (Q12809 whole entry, looked up): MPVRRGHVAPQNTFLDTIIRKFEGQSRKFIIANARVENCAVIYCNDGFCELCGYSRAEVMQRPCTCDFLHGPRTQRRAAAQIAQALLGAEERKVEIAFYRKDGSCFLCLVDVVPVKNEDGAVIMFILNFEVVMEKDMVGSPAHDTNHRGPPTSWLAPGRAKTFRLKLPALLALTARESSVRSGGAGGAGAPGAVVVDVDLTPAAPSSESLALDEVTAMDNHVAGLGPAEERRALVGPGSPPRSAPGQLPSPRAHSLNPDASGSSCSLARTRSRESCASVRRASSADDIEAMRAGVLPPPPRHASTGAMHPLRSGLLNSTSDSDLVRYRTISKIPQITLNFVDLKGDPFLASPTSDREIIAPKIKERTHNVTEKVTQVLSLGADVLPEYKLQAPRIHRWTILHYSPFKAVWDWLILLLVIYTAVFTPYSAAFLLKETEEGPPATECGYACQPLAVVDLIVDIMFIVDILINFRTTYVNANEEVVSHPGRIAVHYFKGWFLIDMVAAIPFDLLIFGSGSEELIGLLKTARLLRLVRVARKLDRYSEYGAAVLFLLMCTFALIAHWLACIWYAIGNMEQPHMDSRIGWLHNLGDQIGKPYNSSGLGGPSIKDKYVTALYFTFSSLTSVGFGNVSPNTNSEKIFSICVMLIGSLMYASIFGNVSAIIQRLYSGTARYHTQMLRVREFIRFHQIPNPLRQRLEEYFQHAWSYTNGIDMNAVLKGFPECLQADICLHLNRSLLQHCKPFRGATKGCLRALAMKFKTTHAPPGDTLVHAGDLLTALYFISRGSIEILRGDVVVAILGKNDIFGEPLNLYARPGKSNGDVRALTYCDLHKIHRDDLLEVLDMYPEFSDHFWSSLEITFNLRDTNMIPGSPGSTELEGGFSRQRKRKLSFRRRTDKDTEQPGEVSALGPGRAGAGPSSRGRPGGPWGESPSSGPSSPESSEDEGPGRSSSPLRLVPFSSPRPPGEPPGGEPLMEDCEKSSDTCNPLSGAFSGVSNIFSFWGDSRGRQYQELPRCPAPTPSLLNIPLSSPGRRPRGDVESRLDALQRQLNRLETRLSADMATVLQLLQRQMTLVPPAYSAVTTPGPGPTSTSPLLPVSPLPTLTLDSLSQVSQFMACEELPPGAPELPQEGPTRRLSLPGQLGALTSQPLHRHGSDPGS

SMILES	hERG current change (%, negative = inhibition) at 1uM
O=C(c1ccc(-c2ccccc2)cc1)C1CCCN(C(=O)Cn2cncn2)C1 (stereo not shown)	8.52%
O=C(CN1C(=O)NC2(CCOc3ccccc32)C1=O)Nc1ccc2c(c1)OCCO2 (stereo not shown)	10.3%
O=C(CCN1C(=O)/C(=C/c2ccc3c(c2)OCO3)SC1=S)NNC(=O)c1cccnc1	14.1%
O=C(N/N=C/c1cccnc1)c1ccc([N+](=O)[O-])cc1	-5.8%
CCc1ccc(CN2CCC(n3nccc3NC(=O)c3ccc4c(c3)OCO4)CC2)cc1	-58.4%
CCOc1cc(C(=O)NC)cc(Br)c1OC	11.7%
Cc1ccc2c(c1)-c1nc3ccccc3cc1C2=NC1CCCCC1	17.3%
CS(=O)(=O)N1CCN(C(=O)c2ccc(-c3ccccc3)cc2)CC1	9.18%
Cc1cc(-c2n[nH]c(=S)n2/N=C/c2ccccc2[N+](=O)[O-])n[nH]1	12%
Cc1c(C(=O)OCC(=O)N(C)Cc2ccccc2)oc2ccccc12	6.88%
COc1cccc(NS(=O)(=O)c2c(C)nc3sccn3c2=O)c1	9.38%
O=C(Nc1ccccc1)c1c(F)c(F)c(F)c(F)c1F	3.84%
O=C(NC(C(=O)N/N=C/c1ccccc1)c1n[nH]c(=O)c2ccccc12)c1ccccc1 (stereo not shown)	9.47%
CCc1ccccc1NC(=O)CSc1nnc([C@@H](NC(=O)OC(C)(C)C)C(C)C)o1	5.92%
COc1ccc2oc(C(=O)OCC(=O)N(C)CC(=O)Nc3ccc(F)cc3)c(C)c2c1	12.4%
Cc1cc(C(=O)N(C)Cc2c(F)cccc2Cl)c2ccccc2n1	-6.52%
Nn1c(SCC(=O)Nc2ccc3c(c2)OCCO3)nnc(CCC(=O)O)c1=O	10.7%
Cc1ccc(C)c(NC(=O)C(=O)NCc2ccccn2)c1	6.08%
O=C(CSCCO)Nc1ccc(C2CCCCC2)cc1	-2.66%
CC1CCN(C(=O)c2scc3c2OCCO3)CC1	-3.72%
C=CCCCN(Cc1ccccc1)S(=O)(=O)c1ccccc1Br	7.98%
O=C(NCCN1CCOCC1)c1cc(-c2ccc(F)cc2)nc2ccccc12	-1.43%
COc1cccc(/C=c2\s/c(=C\C(=O)C(C)(C)C)[nH]c2=O)c1	4.63%
CCN(CC)C(=O)C1CCN(c2ncnc3c2cnn3-c2ccc(C)cc2C)CC1	8.99%
Cc1cc(Cl)c(S(=O)(=O)N2CC(C)OC(C)C2)cc1OCC(N)=O (stereo not shown)	0.206%
Cc1cc(NC(=O)CSc2ccc3nnc(-c4cccc(F)c4)n3n2)no1	6.7%
Cc1ccccc1NC(=O)c1nn(-c2ccc(F)c(F)c2)ccc1=O	7.26%
N#CC12CCCCC1CC1CCCCC1(C#N)N2Cc1cccnc1 (stereo not shown)	-2.82%

SMILES	hERG current change (%, negative = inhibition) at 1uM
CCn1c(SCC(=O)Nc2sc3c(c2C#N)CCCC3)nnc1-c1ccncc1	-9.94%
Cc1ccc2nc(SCC(=O)Nc3ccc(C)c([N+](=O)[O-])c3)[nH]c2c1	10.1%
CC(NC(=O)CN1C(=O)NC2(CCCC2)C1=O)c1ccc2ccccc2c1 (stereo not shown)	5.74%
COc1ccc(OC)c(NC(=O)c2ccc3c(=O)n(CCc4ccccc4)c(=S)[nH]c3c2)c1	12.5%
CC1CCC(C(C)C)C2=C1C(C#N)(C#N)C(C#N)(C#N)C(c1ccccc1)N2 (stereo not shown)	12.6%
CCC(CC)COC(=O)C(C#N)c1nc2ccccc2nc1N1CCN(CC)CC1 (stereo not shown)	-5.3%
COc1ccc(C(C[N+](=O)[O-])C2(c3ccc(OC)c(OC)c3)C(=O)c3ccccc3C2=O)cc1 (stereo not shown)	4.39%
O=C(CNC(=O)c1cccs1)OCC(=O)c1ccc2ccccc2c1	12.9%
N=C1/C(=C/c2cccn2-c2cccc([N+](=O)[O-])c2)C(=O)N=C2SC=CN12	16.5%
COc1ccccc1OCCNC(=O)c1ccc2c(c1)CCC2	3.02%
Cn1nccc1NS(=O)(=O)c1ccc(F)cc1	12.3%
CCCCNC(=O)N(C)c1nncnc1C(=O)NC	13.1%
O=C(CN1CCN(c2nc(-c3ccccc3)cs2)CC1)NCc1ccc2c(c1)OCO2	-1.94%
Cc1ccc(/C=C2/Sc3ccccc3N(CC(=O)NCC3CCCO3)C2=O)cc1 (stereo not shown)	3.89%
Cc1cnc(C(=O)OC(C)C(=O)c2c(C)[nH]c3ccccc23)cn1 (stereo not shown)	-2.75%
COc1ccc2c(C)cc(SCC(=O)NCCN3C(=O)CSC3=O)nc2c1	17.6%
O=C(NCCCCc1ccccc1)C1CC(c2cccc(F)c2)=NO1 (stereo not shown)	7.53%
CN(CC(=O)Nc1cccc(F)c1)C(=O)CCCc1c[nH]c2ccccc12	2.54%
COc1cccc(COC(=O)C2CC(=O)N(Cc3ccc(C)cc3)C2)c1OC (stereo not shown)	1.74%
CC(C)CNC(=O)c1cc([N+](=O)[O-])ccc1N1CCCCC1	7.4%
CCN(CC)S(=O)(=O)c1ccc(/C=C/C(=O)Nc2ccc(N3CCOCC3)cc2)cc1	3.95%
Cc1nn(Cc2ccccc2Cl)c(C)c1C(=O)OCC(=O)NC1CCS(=O)(=O)C1 (stereo not shown)	12.1%
Cn1c(-c2cc(Cl)ccc2O)nc2c1c(=O)[nH]c(=O)n2Cc1ccccc1	13.7%
O=C(c1ccc2nc(Cc3ccccc3F)oc2c1)N1CC[C@H](O)C1	14.2%
FC(F)(F)c1nc(Sc2ncccc2C(F)(F)F)n[nH]1	8.97%
Cc1ccc(-n2c(CNc3ccc(F)cc3)nnc2SCC(=O)N2CCOCC2)cc1	-4.09%
Fc1ccccc1/C=N/Nc1cc(N2CCCCC2)ncn1	8.39%
